Experimental findings from the supplement of paper PMC4967469 are described below.

IC50 is the fitted dose that halves viability relative to control wells, and lower means more sensitive; fits outside the tested doses are given as limits. The AUC spans the tested range (256-fold, ending at the top dose) of the same fit; values near 1 show little effect. For part of these data: A top dose marked as inferred is not printed in the source and was worked back from the curve model.

Holding throughout (assay): Viability of human cancer cell lines after 72 h of drug (GDSC screen)
Compound in one experiment: CO[C@@]12[C@H](COC(N)=O)C3=C(C(=O)C(C)=C(N)C3=O)N1C[C@@H]1N[C@@H]12 [Mitomycin C]
The settings on record: top dose 16 µM. The procedure:
(§1)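 Human cancer cell lines in 384-well plates, medium with 10% serum, drug for 72 h over a 256-fold dose range (nine 2-fold or five 4-fold steps up to the top dose). Adherent lines were fixed and stained with the nucleic acid dye Syto60, suspension lines read with resazurin; signal relative to control wells, capped at 0 and 100%. One two-parameter sigmoid per drug and line, fitted in a mixed model over all curves with the slope shared within a line.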

Compound in the next experiment: O=C(O)CNC(=O)c1c(O)c2ccccc2n(Cc2ccccc2)c1=O [IOX2]
The settings on record: top dose 0.1 µM; top dose inferred. Here is the method:
as §1

Compound in a further experiment: CC[C@H](CO)Nc1nc(NCc2ccccc2)c2ncn(C(C)C)c2n1 [Roscovitine]
The following applies: top dose 16 µM; top dose inferred. The procedure:
as §1

Compound in another experiment: COc1cc(Nc2c(C#N)cnc3cc(OCCCN4CCN(C)CC4)c(OC)cc23)c(Cl)cc1Cl [Bosutinib]
The settings on record: top dose 2 µM. The procedure:
as §1

Compound in another experiment: CO[C@@H]1[C@H](N(C)C(=O)c2ccccc2)C[C@H]2O[C@]1(C)n1c3ccccc3c3c4c(c5c6ccccc6n2c5c31)C(=O)NC4 [Midostaurin]
The settings on record: top dose 0.512 µM; top dose inferred. The procedure: as §1

Compound in the next experiment: Cc1ccc(C(=O)Nc2cccc(C(F)(F)F)c2)cc1Nc1nc(-c2cccnc2)nc2c1cnn2C [NVP-BHG712]
The following applies: top dose 10.24 µM; top dose inferred. Here is the method: as §1

The IC50 is the midpoint of a concentration-inhibition curve. For the cell line LB2241-RCC (kidney, adherent), the AUC with Mitomycin C amounted to 0.195; with IOX2, 0.981; in the experiment with Roscovitine, 0.911; in the experiment with Bosutinib, 0.716; in the experiment with Midostaurin, 0.878; with NVP-BHG712, 0.923. In addition, the half-maximal inhibitory concentration (IC50) in the experiment with Mitomycin C was 108 nM; in the experiment with IOX2 it was above 100 nM; in the experiment with Roscovitine, above 16000 nM; with Bosutinib it was 555 nM; with Midostaurin, above 512 nM; with NVP-BHG712 it was above 10200 nM.

On to “GR-ST (lymphoblastic leukaemia, suspension)”, for which the AUC with Mitomycin C was determined as 0.301; with IOX2, 0.969; in the experiment with Roscovitine, 0.979; with Bosutinib, 0.973; in the experiment with Midostaurin, 0.916; with NVP-BHG712 it was 0.869. In addition, the IC50 with Mitomycin C was 243 nM; with IOX2, above 100 nM; with Roscovitine, above 16000 nM; with Bosutinib it was above 2000 nM; with Midostaurin, above 512 nM; with NVP-BHG712, above 10200 nM.

As to “KARPAS-422 (B-cell lymphoma, suspension)”, the AUC worked out at 0.487 with Mitomycin C; 0.987 with IOX2; 0.891 with Roscovitine; 0.988 with Bosutinib; 0.91 with Midostaurin; 0.968 with NVP-BHG712. For the same cell line, the 50% inhibitory concentration (IC50) with Mitomycin C is 925 nM; with IOX2 it was above 100 nM; in the experiment with Roscovitine, above 16000 nM; with Bosutinib it was above 2000 nM; with Midostaurin, above 512 nM; in the experiment with NVP-BHG712 it was above 10200 nM.

OCI-LY-19 (B-cell lymphoma, suspension): the AUC in the experiment with Mitomycin C came to 0.047; with IOX2, 0.982; with Roscovitine, 0.933; with Bosutinib, 0.78; with Midostaurin, 0.805; in the experiment with NVP-BHG712, 0.47. Moreover, the IC50 was below 62.5 nM in the experiment with Mitomycin C; above 100 nM in the experiment with IOX2; above 16000 nM with Roscovitine; 759 nM in the experiment with Bosutinib; 234 nM with Midostaurin; 533 nM with NVP-BHG712.

In the case of “NCI-H2227 (small cell lung carcinoma, semi-adherent)”, the AUC with Mitomycin C came to 0.786; with IOX2 it was 0.984; in the experiment with Roscovitine, 0.984; with Bosutinib, 0.986; in the experiment with Midostaurin, 0.969; in the experiment with NVP-BHG712, 0.981. The IC50 is 7860 nM in the experiment with Mitomycin C; above 100 nM with IOX2; above 16000 nM in the experiment with Roscovitine; above 2000 nM with Bosutinib; above 512 nM with Midostaurin; above 10200 nM with NVP-BHG712.

As to “BV-173 (chronic myeloid leukaemia, suspension)”, the AUC was 0.617 with Mitomycin C; 0.987 in the experiment with IOX2; 0.967 with Roscovitine; 0.566 with Bosutinib; 0.898 with Midostaurin; 0.122 with NVP-BHG712. The half-inhibitory concentration (IC50) with Mitomycin C was 2010 nM; with IOX2 it was above 100 nM; with Roscovitine, above 16000 nM; with Bosutinib it was 184 nM; with Midostaurin, 509 nM; in the experiment with NVP-BHG712, 49.7 nM.

With GT3TKB (stomach, adherent), the AUC with Mitomycin C was found to be 0.275; with IOX2 it was 0.989; in the experiment with Roscovitine it was 0.96; with Bosutinib, 0.949; in the experiment with Midostaurin, 0.867; with NVP-BHG712 it was 0.987. Moreover, the IC50 with Mitomycin C is 252 nM; with IOX2, above 100 nM; with Roscovitine it was above 16000 nM; in the experiment with Bosutinib, above 2000 nM; with Midostaurin, 374 nM; with NVP-BHG712 it was above 10200 nM.
